Test results taken from article PMC8233286.
Residue numbers refer to the chain shown, from its start. Results are given in words; binding and its absence hold for the method and conditions named. Binding seen in cells or lysates may run through a third protein. Some entries that bind do so weakly or less than the wild type. For part of these data: Where a sequence is shown, tags or fusion partners need not be part of it.

By UniProt entry, the sequences of proteins in these tests, tags left out. Residues count along the entry.
UniProt P78536, residues 215-824: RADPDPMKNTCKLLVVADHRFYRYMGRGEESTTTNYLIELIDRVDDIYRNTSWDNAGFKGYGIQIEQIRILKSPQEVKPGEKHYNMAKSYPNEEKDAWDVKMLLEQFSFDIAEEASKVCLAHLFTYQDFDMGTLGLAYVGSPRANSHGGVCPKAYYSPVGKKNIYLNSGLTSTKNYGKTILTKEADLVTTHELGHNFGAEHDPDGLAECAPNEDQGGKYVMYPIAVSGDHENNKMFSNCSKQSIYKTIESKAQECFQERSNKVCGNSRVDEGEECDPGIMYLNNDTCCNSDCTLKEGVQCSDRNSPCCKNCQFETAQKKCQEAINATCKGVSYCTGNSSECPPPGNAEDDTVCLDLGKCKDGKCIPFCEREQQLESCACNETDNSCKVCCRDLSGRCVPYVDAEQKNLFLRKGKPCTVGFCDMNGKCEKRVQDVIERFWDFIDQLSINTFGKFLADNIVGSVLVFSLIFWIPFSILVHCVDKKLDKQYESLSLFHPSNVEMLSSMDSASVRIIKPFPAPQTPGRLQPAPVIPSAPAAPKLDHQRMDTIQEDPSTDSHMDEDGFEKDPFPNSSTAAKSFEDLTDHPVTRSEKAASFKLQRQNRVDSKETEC

Experiments:
Assay in all cases: co-IP; HA-tagged iRhom construct as bait, anti-HA magnetic beads, cleared lysate of stably expressing HEK293 cells (50 mM Tris, 137 mM NaCl, 2 mM EDTA, 10 mM 1,10-phenanthroline, pH 7.5), 90 min, five washes; endogenous ADAM17 detected by western blot; also after cycloheximide treatment (pulse chase)
[1] = biological target: T1, miR2_W538S (murine iRhom2 with W538S in iCERES), in HEK293 cells (mouse) (UniProt Q80WQ6)
T1 sequence: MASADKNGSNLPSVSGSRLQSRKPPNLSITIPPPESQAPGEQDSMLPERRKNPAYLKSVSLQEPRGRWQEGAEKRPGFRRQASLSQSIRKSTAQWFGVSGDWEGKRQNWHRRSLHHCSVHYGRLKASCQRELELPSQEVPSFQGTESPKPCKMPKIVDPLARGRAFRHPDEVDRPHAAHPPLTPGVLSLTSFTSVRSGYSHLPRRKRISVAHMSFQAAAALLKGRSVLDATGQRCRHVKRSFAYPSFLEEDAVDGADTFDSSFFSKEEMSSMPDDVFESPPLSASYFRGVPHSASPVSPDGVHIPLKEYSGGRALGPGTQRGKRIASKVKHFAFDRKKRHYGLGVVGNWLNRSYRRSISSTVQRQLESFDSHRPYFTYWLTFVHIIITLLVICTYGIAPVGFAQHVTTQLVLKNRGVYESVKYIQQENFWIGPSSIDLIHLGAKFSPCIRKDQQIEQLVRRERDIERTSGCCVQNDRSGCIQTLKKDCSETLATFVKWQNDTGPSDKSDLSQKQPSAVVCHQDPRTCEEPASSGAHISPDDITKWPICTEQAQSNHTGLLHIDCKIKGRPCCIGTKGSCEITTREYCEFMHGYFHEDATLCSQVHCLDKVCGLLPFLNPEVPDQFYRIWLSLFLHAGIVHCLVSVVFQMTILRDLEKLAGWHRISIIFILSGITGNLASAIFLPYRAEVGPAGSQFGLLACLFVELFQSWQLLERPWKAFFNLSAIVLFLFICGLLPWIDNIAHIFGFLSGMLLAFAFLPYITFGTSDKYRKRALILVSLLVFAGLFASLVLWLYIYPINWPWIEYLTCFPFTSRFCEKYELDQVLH

[2] = biological target: T2, murine wt_iRhom2 (wild-type) construct with 3xHA tag, in HEK293 cells (mouse) (UniProt Q80WQ6)
T2 sequence: T1 sequence with S538W

[3] = biological target: T3, miR2_W538S_W545S (murine iRhom2 double mutant) (mouse) (UniProt Q80WQ6)
T3 sequence: T1 sequence with W545S

Measured: binding

mature ADAM17 (mADAM17), endogenous in HEK293 cells (from UniProt P78536 215-824) (enzyme)
binds: all assays above
